Measurements from PubChem BioAssay AID1963576 (National Center for Advancing Translational Sciences (NCATS), 2024).
Hit rate of the full screen: of about 46,000 compounds, about 60 (0.1%) were called active. About 3% were inconclusive and are not listed. Calls follow the shape of the dose curve; as a rule, active = well fitted inhibition curve with a large enough effect; inconclusive = small, poorly fitted or top-dose-only effect; inactive = no such curve, though single readings can be large or run the other way. This is one part of the list.

Assay: Primary qHTS assay for Inhibitors of ovarian cancer metastasis using an organotypic tumor microenvironment (TME) model. Also: nearly all actives have a fitted effect of over 65% in size.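 As to activity change, negative = inhibition: plate controls were DMSO wells for no effect and tomatine positive control wells for full effect.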
Settings: SKOV3ip1-GFP adhesion/invasion on 3D omental model, fluorescence; series mostly up to 45.8 µM; activity change, negative = inhibition: at the top concentration
Outline: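 Primary human omental fibroblast/mesothelial 3D culture pre-formed 48 h. SKOV3ip1-GFP cells added with compounds (0.36-46 umol/L), incubated 2 h RT/16 h 37 C, fixed; GFP cells quantified at 488/509 nm.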

Compound | activity change, negative = inhibition | outcome
COc1ccc2c(c1)c1c(c(=O)n(-c3ccc(OC)c(OC)c3)c(=O)n1Cc1ccccc1C)n2C | inactive: -2.39% | –
Cc1ccc(S(=O)(=O)c2nc(-c3cccs3)oc2N2CCCCC2)cc1 | inactive: -3.01% | –
CCc1ccc(-c2cn3c(n2)sc2cc(C(=O)NCCc4ccc(OC)cc4OC)ccc23)cc1 | inactive: -4.62% | –
COc1ccccc1NC(=O)Cn1c(=O)n(Cc2ccc3c(c2)OCO3)c(=O)c2oc3ccccc3c21 | inactive: -5.58% | –
O=C(c1noc2c1CCCCC2)N1CCN(c2ccc(Cl)cc2)CC1 | inactive: 8.63% | –
COc1ccc(N(C(=O)/C=C\C(=O)Nc2ccc(Cl)cc2)C(C(=O)NCc2ccco2)c2ccc(C)cc2)cc1 (stereo unspecified) | – | inactive
CN(Cc1ccccc1)C(=O)CN1C(=O)CSc2ccc(S(=O)(=O)N3CCOCC3)cc21 | inactive: 4.4% | –
COc1ccc(OC)c(S(=O)(=O)Nc2cc3c(cc2C)n(C)c(=O)c(=O)n3C)c1 | inactive: 2.19% | –
Cc1ccc(NC(=O)NCc2ccc3c(c2)CCN3C(=O)c2ccccc2)c(Cl)c1 | inactive: -23.8% | –
Cc1ccc(NC(=O)CN(c2ccccc2)S(=O)(=O)N(C)C)cc1Cl | – | inactive
C#CC(C)(C)NS(=O)(=O)c1cc(-c2nnc(Nc3ccc(C)cc3)c3ccccc23)ccc1C | – | inactive
Cc1ccc(NC(=O)c2nn(C)c3c2CS(=O)(=O)c2ccccc2-3)c(Cl)c1 | inactive: -7.1% | –
NS(=O)(=O)c1ccc(CCNC(=O)CCCCCn2c(=O)[nH]c3ccccc3c2=O)cc1 | – | inactive
COc1ccc(NC(=O)c2cn(CC(C)C)c(=O)c3cc(OC)c(OC)cc23)cc1Cl | – | inactive
CCc1c(C)sc2c1CCN(C(=O)Nc1cc(OC)c(OC)c(OC)c1)C2c1ccccc1 (stereo unspecified) | inactive: 3.03% | –
COc1cccc(C(=O)NC2(C(F)(F)F)C(=O)Nc3c2c(=O)[nH]c(=O)n3-c2ccc(C)cc2)c1 (stereo unspecified) | inactive: -15.8% | –
CCc1cccc(NC(=O)CSc2ncc3c(n2)-c2ccc(Cl)cc2N(Cc2ccccc2)S3(=O)=O)c1 | – | inactive
O=C(CCCCCn1c(=O)c2sccc2n(CC(=O)Nc2cccc(Cl)c2)c1=O)NCc1ccc2c(c1)OCO2 | inactive: 1.81% | –
CCOC(=O)Cc1ccc(NC(=O)Nc2cccc(OCc3cc(=O)n4cc(C)ccc4n3)c2)cc1 | – | inactive
COc1ccc(-c2nc3c(c(SCC(=O)Nc4ccc(C(=O)O)cc4)n2)Cc2ccccc2O3)cc1 | inactive: -19.1% | –
Cc1nc(N2CCOCC2)c2c(C(=O)NCc3cccc(Cl)c3)c(C)oc2n1 | – | inactive
Oc1c(C(c2ccccc2)N2CCC3(CC2)OCCO3)sc2nc(-c3ccco3)nn12 (stereo unspecified) | inactive: -3.72% | –
Cn1c(=O)c2c(-c3ccccc3)n3c(c2n(C)c1=O)C(c1ccccc1[N+](=O)[O-])Nc1ccccc1-3 (stereo unspecified) | inactive: 1.88% | –

Compound | activity change, negative = inhibition | outcome
CCc1ccc(NC(=O)C(NS(=O)(=O)c2cccs2)C(C)C)cc1 (stereo unspecified) | – | inactive
CCCCN(C)CCNC(=O)c1ccc2c(=O)n(CCc3ccccc3)c(=O)[nH]c2c1 | – | inactive
O=C(Nc1ccc2oc(-c3cccc4c(Br)cccc34)nc2c1)c1ccc(F)cc1 | – | inactive
Cn1c(=O)c2c(c3ccccc31)OC(=O)CC2c1ccc(C(F)(F)F)cc1 (stereo unspecified) | inactive: 1.57% | –
O=C(c1ccc2c(c1)N(Cc1ccccc1F)C(=O)c1ccccc1S2(=O)=O)N1CCOCC1 | inactive: 13.4% | –
CCCN(Cc1cccs1)C(=O)Nc1cc(Cl)c(OC)cc1OC | – | inactive
CCCN(CCC)CCCNC(=O)Cn1cnc2sc(C)c(S(=O)(=O)N3CCCCC3)c2c1=O | inactive: -1.88% | –
O=C(COC(=O)c1cc(-c2cccs2)nc2ccccc12)c1ccccc1 | inactive: -2.82% | –
CCOC(=O)c1oc2ccc(S(=O)(=O)n3nc(-c4ccccc4OC)cc3N)cc2c1C | inactive: 14.2% | –
COc1ccc(C2=NC3(CCCCC3)N(CC(=O)Nc3ccc(C(C)C)cc3)C2=O)cc1 | inactive: 12.2% | –
CCOCCCNC(=O)c1ccc2nc(CCc3ccccc3)oc2c1 | inactive: -3.22% | –
COc1cccc(-n2c(SCC(=O)Nc3cc(C)ccc3C)nc3c(oc4ccccc43)c2=O)c1 | – | inactive
CCn1c(=O)n(-c2ccc(C)c(F)c2)c(=O)c2sc3ccccc3c21 | – | inactive
COc1ccc(-c2cc(C(=O)Oc3ccccc3)c3cc(C)ccc3n2)cc1 | inactive: -17.7% | –
Cc1ccc(-c2nc3nc(C)cc(N4CCN(c5cc(Cl)ccc5C)CC4)n3n2)cc1 | inactive: -0.349% | –
Cc1ccc2nc(N(Cc3cccnc3)C(=O)Cc3ccccc3)sc2c1 | inactive: 3.47% | –
COc1cccc(CN2CCc3nc(Nc4ccc5c(c4)OCCO5)ncc3C2)c1 | inactive: -9.6% | –
CC[C@H](C=C[C@@H](C)[C@H]1CC[C@H]2[C@@H]3CC=C4C[C@@H](O)CC[C@]4(C)[C@@H]3CC[C@]12C)C(C)C | inactive: 0.676% [at 23.2 µM] | –
COc1ccc(C(=O)CN2CCN(S(=O)(=O)c3ccc(C(C)C)cc3)CC2)cc1 | inactive: -2.19% | –
CCc1ccc(-n2c(=O)c3c4c(sc3n(CC(=O)NCCCOC)c2=O)CCCC4)cc1 | – | inactive
CC1CCN(c2ncnc3c2cnn3-c2ccc(F)cc2)CC1 | inactive: -24.8% | –
Fc1ccc(NCc2cccn2-c2nnc(N3CCOCC3)s2)cc1 | inactive: -21.9% | –
O=C(NCCc1cccs1)c1ccc(Cn2c(SCc3ccc(F)cc3)nc3cccnc32)cc1 | – | inactive
